Laboratory results reported in the supplement of paper PMC3334620.
Over roughly 33,000 sequences, “E-score (-0.5 to 0.5)” has its median near -0.032; the highest 2% begin near 0.36. The list shows a part of the results.

What follows are sequences tested against T1, Sko1 (UniProt Q02100) (assay: PBM E-score (8-mer binding enrichment) (E-score (-0.5 to 0.5)); higher = stronger / more preferred TF binding; most listed sequences are background and not binding sites). Conditions: protein concentration: 200 nM; construct: GST-full length.
T1 sequence: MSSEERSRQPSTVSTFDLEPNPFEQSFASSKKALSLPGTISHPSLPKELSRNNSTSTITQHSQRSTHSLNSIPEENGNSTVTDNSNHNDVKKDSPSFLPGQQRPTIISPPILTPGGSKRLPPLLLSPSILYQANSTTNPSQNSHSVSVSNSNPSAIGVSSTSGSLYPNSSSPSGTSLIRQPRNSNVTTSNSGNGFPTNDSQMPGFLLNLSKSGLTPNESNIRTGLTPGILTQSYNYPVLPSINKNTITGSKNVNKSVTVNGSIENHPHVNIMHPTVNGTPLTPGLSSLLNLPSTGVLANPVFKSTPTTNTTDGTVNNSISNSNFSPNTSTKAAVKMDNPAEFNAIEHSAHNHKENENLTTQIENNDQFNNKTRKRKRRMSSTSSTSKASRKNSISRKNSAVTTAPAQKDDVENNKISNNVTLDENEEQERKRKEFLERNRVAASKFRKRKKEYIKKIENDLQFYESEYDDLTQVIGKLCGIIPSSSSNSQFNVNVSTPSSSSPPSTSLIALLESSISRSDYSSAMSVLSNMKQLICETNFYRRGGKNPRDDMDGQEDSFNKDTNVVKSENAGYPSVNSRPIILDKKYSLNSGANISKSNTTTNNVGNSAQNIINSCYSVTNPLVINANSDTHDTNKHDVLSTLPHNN
Procedure, shortened: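 E-scores (a modified Wilcoxon-Mann-Whitney statistic) were assigned by the Universal PBM Analysis Suite to every ungapped eight-base word pooled with its reverse complement. The input came from universal all-10-mer Agilent arrays made double-stranded by primer extension and probed with GST-tagged yeast transcription factors at about 100-200 nM. Fluorescent anti-GST detected bound protein, and masliner normalised the scans.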

Sequence	PBM E-score
AGCTGTTA	0.0248
AAGCTGTA	0.19
ATTGAGCA	0.026
ACCCTCGA	-0.182
AAAATGAC	0.356
CTTCAATC	-0.0703
ACATTAAT	0.145
CGGAGGGC	-0.385
GATTGTCA	0.136
ATAACCCA	-0.0509
AACCTAGC	-0.123
AGAGAGAG	-0.151
CCGTTGGA	-0.119
CATTGCAC	0.0802
CAATTCCC	0.0939
TGCGTCAA	0.377
TCCGACGA	0.0655
AGCTTTCC	-0.147
AGAGCCGA	-0.125
ATCCGAAC	-0.19
AGGTGAGA	0.0124
GGCTATTA	0.261

Sequence	PBM E-score
CTAGTACA	0.083
CTCTGTGA	0.0354
CGTACCAA	0.229
ACGTGATG	0.442
ACCACGAA	0.131
GTGGACGA	0.11
AAACAGCG	0.0903
ATGGCAGC	-0.235
AGGAAAAC	-0.108
CTCACTGC	-0.114
TTTAAAAA	0.234
GACTATTA	0.0115
AGGGAATC	-0.153
ATAACGAT	0.154
CATGTAGG	0.111
ATGGATAA	-0.0663
AGCCGTCG	-0.145
AGGGAAGA	-0.21
ACTGCGCG	0.0146
AAATACTG	-0.00639
CACGGAGG	-0.209
CAAGTATA	-0.0893

Sequence	PBM E-score
CATACGGG	-0.0866
AGTAATGC	0.0678
AACCGAGA	-0.154
ATTCGTAG	0.324
CGAGGCTC	-0.124
CACGCGGG	-0.0357
CTAGCGGA	-0.309
GTAAACCA	-0.0918
CTCCCCAC	-0.00257
GCTAGCCC	-0.26
TCGACAAA	0.163
ATTTTCAG	0.0915
GGTAAGAA	-0.19
ATCCTCTA	-0.0602
ATGGCTAG	-0.0737
AACGTCGG	0.182
ATAGCTTA	0.139
CATGATGC	0.258
AGGAGACC	-0.279
CGTGTGCC	0.204
ATGGCGCG	0.00027
GCAGCCCC	-0.351

Sequence	PBM E-score
CCGTGCGC	-0.067
GGATATTA	0.108
ACCTTACG	0.338
AGATGCAT	-0.0801
CAACTCAG	-0.198
CACCCAAA	0.00176
ACCAATAA	0.149
CTGCGTAA	0.397
CTTTTGCA	0.057
TCCAGGAA	-0.07
CCATAGGA	-0.101
AAATTCAG	0.0894
ATCCAGAG	-0.0594
GTGCAAAA	0.059
GAACCACC	0.166
AGTCAGCG	-0.162
CTTGACGC	0.262
TCCCCTAA	-0.0831
TCGCAAGA	-0.167
ACTGCTGC	-0.0429
GTCGGAGA	-0.0708
ACTTGCGG	-0.118

Sequence	PBM E-score
ACCAGCTG	-0.229
TACGTACA	0.477
AAGTCAGG	-0.225
GGCCCCAA	-0.198
CGCTAGGC	-0.223
CATATCAA	0.254
AAGATAGA	-0.0614
CAGGTATA	0.143
AGCCGAAT	-0.104
AACGCTGG	-0.0614
ACGTATTC	0.471
CCTTATCG	0.0516
GCTTCGCC	-0.395
AGGTACGC	0.106
CCAGACCC	-0.305
ACCAGATG	-0.0283
CAGATTCG	-0.0271
CGGGCCCC	-0.275
GGTGACAC	-0.176
AGGCGCCA	-0.218
CCGAGGGA	-0.378
GGGACTCA	-0.277
